# According to article PMC10668032:
# The other results are listed elsewhere or left out. At the low end of the ranking the order means little.
# Target: SIX1 homeodomain (reference allele) (UniProt Q15475)
# Test: universal protein binding microarray
# Settings: Universal all-10-mer PBM (8x60K, AMADID 030236), 300 nM GST-tagged protein, Alexa Fluor 488 anti-GST; buffer, salt, pH and temperature not stated; high values mean tight binding; most listed sequences are background and not binding sites; double strand, one strand shown
row,Sequence,binding signal
1,AGACGCAC,-0.0387 E-score
2,ACATTGGT,-0.193 E-score
3,CGCGGACG,-0.252 E-score
4,ACGAGGGG,-0.0487 E-score
5,ATTGACAA,-0.0716 E-score
6,GCTTGGCC,-0.146 E-score
7,CAAGTGAG,-0.0769 E-score
8,CAGCGCTA,-0.11 E-score
9,ACTTATAA,-0.0412 E-score
10,ATTAGCTA,0.112 E-score
11,AAGCACGT,-0.108 E-score
12,CGAGCGAA,-0.0247 E-score
13,TATTTCAA,0.00941 E-score
14,GTGATGCA,0.0839 E-score
15,CTCTGGCA,-0.166 E-score
16,ATCGACAT,0.134 E-score
17,CCGTTTGC,-0.0816 E-score
18,ATTCTCCG,-0.0964 E-score
19,CAATCGAC,-0.28 E-score
20,GACACACA,0.0507 E-score
21,CCAGCCAC,-0.0813 E-score
22,CATCTAGA,0.186 E-score

row,Sequence,binding signal
1,CATCCACG,0.183 E-score
2,GTCCCGAC,-0.248 E-score
3,ATAACCTC,0.0599 E-score
4,CTTCTAAC,0.0517 E-score
5,ATGCTCAG,-0.1 E-score
6,ACCATTTG,-0.143 E-score
7,CGCATCCC,0.0819 E-score
8,AGTCGTAG,-0.0981 E-score
9,ATGGCACA,-0.226 E-score
10,CTCCTTGC,-0.121 E-score
11,GCAGATTA,0.177 E-score
12,ATAGCTGG,0.0714 E-score
13,TCACCGCA,-0.0496 E-score
14,ATATGTAA,0.0862 E-score
15,AGATAGTG,0.152 E-score
16,GTACATCA,-0.0869 E-score
17,GTTTTAAA,-0.121 E-score
18,AGGTATGC,0.0795 E-score
19,CCCGGTTA,-0.0155 E-score
20,GATCGGAC,0.248 E-score
21,ACCCTCTC,0.155 E-score
22,CAATGCCG,-0.155 E-score

row,Sequence,binding signal
1,CACTGCTG,-0.0892 E-score
2,CCGTTGTA,0.0251 E-score
3,AGAGCCCG,-0.138 E-score
4,CGAAGCAG,-0.159 E-score
5,GGATTATA,0.362 E-score
6,ATAATGTC,-0.0643 E-score
7,CAGAGAGG,-0.0343 E-score
8,AAACACGG,-0.0305 E-score
9,ACAAGTCT,-0.192 E-score
10,ATAAAGAG,-0.183 E-score
11,ATATCACC,0.463 E-score
12,ATTCGCAC,0.00179 E-score
13,CCGATTTC,-0.268 E-score
14,TCACTTAA,0.0709 E-score
15,ACGAGCCC,0.0651 E-score
16,GAAGGAAC,-0.185 E-score
17,ATCGATGG,0.185 E-score
18,ATAGATCA,0.353 E-score
19,ATGTTCAA,-0.148 E-score
20,ATTAGGGC,-0.16 E-score
21,AGATCTAT,0.189 E-score
22,CAGTACGG,-0.0329 E-score

row,Sequence,binding signal
1,AGTAGCTA,-0.0659 E-score
2,TCTCAGAA,-0.00945 E-score
3,ACACTACC,0.136 E-score
4,ATGTGGCC,-0.032 E-score
5,GGGAACTA,0.0307 E-score
6,ATGTATAA,0.154 E-score
7,CCTACGTA,0.119 E-score
8,ACGCATTG,-0.0628 E-score
9,GATCATAC,0.378 E-score
10,ACATCCAT,0.0374 E-score
11,TCGAGCAA,-0.152 E-score
12,ATACCGAC,0.341 E-score
13,CCTTGACA,-0.0904 E-score
14,GTACATAC,-0.0157 E-score
15,CACCCTTA,0.0251 E-score
16,TGTGAACA,-0.0218 E-score
17,ACGATGGA,0.141 E-score
18,AGGAATGG,-0.288 E-score
19,ATCAGAAG,0.0455 E-score
20,ATCCAGGG,0.236 E-score
21,ATGGCCCC,-0.0764 E-score
22,GTATATTA,0.267 E-score

row,Sequence,binding signal
1,GGCGAAGA,-0.119 E-score
2,GCAGCTGC,-0.144 E-score
3,CCATCTCA,0.164 E-score
4,CTGGAGAC,0.0308 E-score
5,ACGGCCTA,0.0736 E-score
6,AATGAGAC,0.0277 E-score
7,ACAGTAAC,-0.189 E-score
8,CGGGTCAC,0.145 E-score
9,CGCCTCAC,-0.0934 E-score
10,CCCCTTCG,-0.0216 E-score
11,AGGGCGTG,-0.139 E-score
12,GACTCAAC,-0.164 E-score
13,CAGTACTC,-0.0438 E-score
14,GATCTGGC,0.295 E-score
15,TAGGTGAA,-0.0689 E-score
16,AGCTCGAG,0.0452 E-score
17,ACACTCTC,0.104 E-score
18,ACTATGTG,0.0949 E-score
19,GAAACTGC,-0.212 E-score
20,CTCGCAGA,-0.111 E-score
21,CAAGTAGG,-0.127 E-score
